Where “and” joins values, the source holds several entries; their conditions need not be identical. Identical values can stand only once. Out of some 48,000 compounds screened, about 1,200 (2.5%) were called active. Inconclusive results (about 2%) are left out.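 How the source made its calls: active means activation of at least 60% and not above a set upper limit (about 1 call in 100 departs from these limits); inconclusive means activation of 40% to 60%, or above that upper limit; inactive means activation under 40%.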 This is one part of the list.
The molecules below were run against Probable G-protein coupled receptor 32 (Homo sapiens) (UniProt O75388) (assay: qHTS for Agonists of Human Resolvin D1 Receptor DRV1). Conditions: CHO-K1 GPR32 beta-arrestin PathHunter luminescence, 90 min; at 76.9 µM; active compounds read high; zero percent set by DMSO-only wells.
UniProt O75388, sequence (O75388 whole entry, looked up): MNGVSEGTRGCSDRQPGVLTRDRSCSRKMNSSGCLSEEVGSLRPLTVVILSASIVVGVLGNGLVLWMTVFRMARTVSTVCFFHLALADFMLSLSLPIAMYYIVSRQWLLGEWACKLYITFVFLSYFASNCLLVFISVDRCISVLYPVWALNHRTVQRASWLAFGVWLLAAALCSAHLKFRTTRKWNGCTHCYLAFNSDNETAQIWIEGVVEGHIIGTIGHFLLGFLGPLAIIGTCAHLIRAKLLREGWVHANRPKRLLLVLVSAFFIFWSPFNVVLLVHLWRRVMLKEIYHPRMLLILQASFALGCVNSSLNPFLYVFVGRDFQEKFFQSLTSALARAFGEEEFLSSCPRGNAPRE
In short: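 Step 1: seed CHO-K1 GPR32 beta-arrestin cells, 2,500/well, overnight at 37 °C. Step 2: add compounds, 90 min at 37 °C. Step 3: detection reagent, 1 h ambient, then luminescence.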
For `COc1cccc(N2CCN(c3ncnc4c3c(-c3ccccc3)cn4-c3cccc(C(F)(F)F)c3)CC2)c1`, the activation was inactive: -29.9%. `CCN(CC)C(=O)Cn1c(=O)n(CCc2ccccc2)c(=O)c2ccccc21` was tested, and the activation was inactive: -3.05%. `CCCNC(=O)N1[C@H](c2cccs2)[C@@H](C)C(=O)[C@@H](C)[C@@H]1c1cccs1` was tested, and the activation was inactive: -16.5%. With `CCOC(=O)Cc1c(C(=O)OCC)nnc2c(-c3ccccc3)c(C)nn12` the activation was inactive: -50%. With `CC(=O)c1ccc(NC(=O)CC2Oc3ccc(C)cc3NC2=O)cc1` (stereo not given) the activation was active: 64.8%. With `COCCNc1oc(-c2ccc(OC)cc2)nc1C#N` the activation was inactive: -0.164%. `CCOC(=O)c1cccc(NC(=O)N2CC=C(c3c[nH]c4ccccc34)CC2)c1` was tested, and the activation was inactive: -14.4%. `COc1ccc(OC)c(NC(=O)N2CC3CCCN3c3ccccc32)c1` (stereo not given) was tested, and the activation was inactive: 11.7%. `CN[C@H](CC(C)C)C(=O)N[C@H]1C(=O)N[C@@H](CC(N)=O)C(=O)N[C@@H]2C(=O)N[C@H]3C(=O)N[C@H](C(=O)N[C@H](C(=O)O)c4cc(O)cc(O)c4-c4cc3ccc4O)[C@H](O)c3ccc(c(Cl)c3)Oc3cc2cc(c3O[C@@H]2O[C@H](CO)[C@@H](O)[C@H](O)[C@@H]2O[C@H]2C[C@](C)(N)[C@H](O)[C@H](C)O2)Oc2ccc(cc2Cl)[C@H]1O` was tested, and the activation was inactive: -6.85%. `CCOC(=O)c1ccccc1NC(=O)COC(=O)CC(C)(C)CC1=NS(=O)(=O)c2ccccc2N1` was tested, and the activation was active: 84.4%. With `Cc1cc(C)n2nc(CNS(=O)(=O)c3ccccc3)nc2n1` the activation was inactive: 29%. `COc1ccc(S(=O)(=O)NCC(c2ccc(N(C)C)cc2)N2CCc3ccccc32)cc1F` (stereo not given) was tested, and the activation was inactive: -35.2%. `CCCN(C(=O)Nc1cn(CC(C)C)c(=O)c2ccccc12)c1ccc(F)cc1` was tested, and the activation was inactive: -15.4%. In the case of `O=C(NCC(c1ccco1)S(=O)(=O)c1cccs1)c1ccc(Cl)cc1` (stereo not given), the activation is reported as inactive: 1.18%. `Cc1ccc2oc(=O)n(CCNC(=O)Nc3ccc(Cl)cc3)c2c1` was tested, and the activation was inactive: 25.9%. `Cc1cc(C(=O)NCc2ccccc2Cl)c2c(C)nn(-c3cccc(F)c3)c2n1` was tested, and the activation was inactive: -10.5%. `CC(=O)N1CCc2c(sc3c2c(=O)n(-c2ccc(C)cc2)c(=O)n3Cc2ccccc2C)C1` was tested, and the activation was inactive: -5.04%. For `CCCCNC(=O)c1ccc2c(c1)NC(=O)C(CS(=O)(=O)Cc1ccc(C)cc1)N2` (stereo not given), the activation was inactive: -3.24%. In the case of `Cc1ccc(C(=O)Nc2ccc3oc(-c4ccccc4C)nc3c2)cc1`, the activation is reported as active: 75.9%. For `Cc1cccc(C)c1NC(=O)CN1CCCCCC1`, the activation was inactive: 3.5%. For `Cc1cc(NC(=O)c2cccn2-c2nnc(N3CCCCC3)s2)ccc1Br`, the activation was inactive: -30.8%. In the case of `CCN1CCN(c2oc(/C=C/c3cc(OC)c(OC)c(OC)c3)nc2C#N)CC1`, the activation is reported as inactive: -0.347%. In the case of `CC(C)C(=O)OCc1cc(=O)n2nc(C3CC3)sc2n1`, the activation is reported as inactive: 6.23%. `CCCCN(C)S(=O)(=O)c1ccc(C(=O)Nc2ccc(-c3nc4ccc(C)cc4s3)cc2)cc1` was tested, and the activation was inactive: -5.42%. In the case of `COc1cc(OC)c(C2C(C(=O)Nc3ccccc3)=C(C)Nc3ncnn32)cc1OC` (stereo not given), the activation is reported as inactive: 10.3%. With `COc1ccc(-c2noc(CC(=O)Nc3ccc(C)c(F)c3)n2)cc1` the activation was inactive: 28%. In the case of `CCc1ccc(C2c3c(oc4cc(C)c(C)cc4c3=O)C(=O)N2c2nc(C)c(C(=O)OC)s2)cc1` (stereo not given), the activation is reported as inactive: 3.87%. `CCC1CN(C(=O)Nc2cc(Cl)c(OC)cc2OC)c2ccccc2O1` (stereo not given) was tested, and the activation was inactive: -27.6%. In the case of `Cc1cc(C)cc(NC(=O)CSc2nc3sc4c(c3c(=O)[nH]2)CCCC4)c1`, the activation is reported as inactive: -5.64%. In the case of `Cc1cc(Cl)ccc1NC(=O)CCCn1nc(C)c2c(C)n(-c3ccccc3)nc2c1=O`, the activation is reported as inactive: 3.51%. For `Cc1c(Cl)cccc1NC(=O)Cn1c(=O)n(Cc2nc(-c3ccccc3)no2)c(=O)c2cc3c(cc21)OCO3`, the activation was inactive: -5.51%. In the case of `CCc1nn(CC(=O)NCCCc2ccccc2)c(=O)c2cc3ccccc3n12`, the activation is reported as inactive: 0.276%. With `CSc1ccc(CCNC(=O)c2cc3cc4cc(C)ccc4nc3s2)cc1` the activation was inactive: -11.8%. For `Cc1ccc(Cn2c(=O)c3cccnc3n(CC(=O)Nc3cc(Cl)ccc3C)c2=O)cc1`, the activation was inactive: -1.96%. With `CCCC(=O)Nc1cccc(-c2cn3c(C)csc3n2)c1` the activation was inactive: -12.7%. With `COC(=O)c1sccc1S(=O)(=O)N(CC(=O)Nc1ccccc1)c1ccccc1` the activation was inactive: -11.3%. For `Cc1ccc(Nc2cc(C)c(C#N)c3nc4ccccc4n23)c(C)c1`, the activation was inactive: -1.04%. In the case of `Cc1c(Cl)cccc1NC(=O)C1CCN(c2nc3ccccc3[nH]2)CC1`, the activation is reported as inactive: -7.02%. For `Cc1cccc(-n2nc(C)c(C(=O)N3CCN(c4ccccc4)CC3)c2-n2cccc2)c1`, the activation was inactive: -11.7%. For `CS(=O)(=O)N(Cc1ccccc1)c1ccc(C(=O)Nc2ccc(Cl)cc2)cc1`, the activation was inactive: 13.1%. For `Cn1c([N+](=O)[O-])cnc1COC(N)=O`, the activation was inactive: -3.59%. In the case of `Cc1ccc(C)c(N2CCN(C(=O)C(CC(C)C)NS(=O)(=O)c3ccc4nc(C)sc4c3)CC2)c1` (stereo not given), the activation is reported as inactive: -18.2%. For `COc1ccccc1C(=O)Nc1ccc(S(=O)(=O)Nc2ncccn2)cc1`, the activation was inactive: 4.76%. For `Cc1cc(F)ccc1NC(=O)CCn1nc(C)c(S(=O)(=O)N2CCCCC2)c1C`, the activation was inactive: -9.2%. For `COc1ccc(Cl)cc1NC(=O)c1cc(S(=O)(=O)N(C)Cc2ccccc2)ccc1F`, the activation was inactive: -6%. For `CCOc1ccc(-c2cc(C(=O)NCCc3ccc(OC)c(OC)c3)c3c(-c4ccc(F)cc4)[nH]nc3n2)cc1`, the activation was inactive: -2.25%. For `COc1cccc(-c2nc(SCC(=O)Nc3ccc4c(c3)OCCO4)c(-c3ccc(C)cc3)[nH]2)c1`, the activation was inactive: -26.9%. In the case of `COc1ccccc1CN(Cc1c(Cl)cccc1Cl)S(=O)(=O)c1ccc(Br)cc1`, the activation is reported as inactive: -15.8%. In the case of `Cn1c(=O)[nH]c(=O)c2c1nc(CN1CCN(c3ccccc3F)CC1)n2Cc1ccc(F)cc1`, the activation is reported as inactive: -26.7%. In the case of `Cc1cccc(OCCCn2c(CCNC(=O)C3CCCCC3)nc3ccccc32)c1`, the activation is reported as inactive: 17.9%. `CCOC(=O)c1cnc2c(C)cccc2c1Nc1ccc(OC(C)C)cc1` was tested, and the activation was inactive: -1.46%. With `Cc1ccc(C)c(N2CCN(c3nc4ccc(C(=O)c5ccccc5)cc4n4cnnc34)CC2)c1` the activation was inactive: -12.2%. With `O=C(NCCc1ccc(Cl)cc1)c1ccc(CSCc2cccc(Cl)c2)o1` the activation was inactive: -5.03%. With `Cn1cc(S(=O)(=O)c2cccc(Cl)c2)c(=O)c2cc(F)c(N3CCCCC3)cc21` the activation was inactive: -2.64%. For `Cc1ccc(Cl)cc1NC(=O)c1oc2ccc(S(=O)(=O)N3CCCCCC3)cc2c1C`, the activation was inactive: -0.142%. With `Cc1cc(C)cc(OCC(=O)N2CCC(c3nc4ccccc4s3)CC2)c1` the activation was inactive: 25%. `CCc1cccc(C)c1NC(=O)CSc1nc2c(c(=O)[nH]1)CCC2` was tested, and the activation was inactive: -8.1%. In the case of `CCCN1C(=O)C(Cc2nc3ccccc3c(=O)n2-c2ccc(OC)cc2)c2cc(C)ccc21` (stereo not given), the activation is reported as inactive: -5.22%. For `CCOc1ccc(NS(=O)(=O)c2ccc3[nH]c4c(c3c2)CCCC4)cc1`, the activation was inactive: 48.6%. In the case of `Cc1cccc(N(C)S(=O)(=O)c2cc3c(cc2Cl)NC(=O)CO3)c1`, the activation is reported as inactive: -3.66%. `Cc1nn2c(=O)cc(COC(=O)c3cccc(NC(=O)c4cccs4)c3)nc2s1` was tested, and the activation was inactive: 5.04%. `COc1ccc2nc(N(Cc3cccnc3)C(=O)c3ccc4c(c3)OCCO4)sc2c1` was tested, and the activation was inactive: -11.7%. `COc1ccc(N(CC(=O)N2CCN(c3cccc(C)c3C)CC2)S(=O)(=O)c2c(C)noc2C)cc1` was tested, and the activation was inactive: -38.5%. `COc1ccc(-c2cn3nc(N4CCC(C(=O)Nc5cccc(C)c5C)CC4)sc3n2)cc1` was tested, and the activation was inactive: 9.22%. `Cc1ccc(CNS(=O)(=O)c2ccc3c(c2)CCN3S(C)(=O)=O)cc1` was tested, and the activation was inactive: 14.3%. For `Cc1c(Cl)cccc1NC(=O)CSc1nc(=O)n(Cc2ccccn2)c2c1CCC2`, the activation was inactive: -3.96%. For `CCCSc1ncc(Cl)c(C(=O)Nc2sc3c(c2C(=O)NCCOC)CCCC3)n1`, the activation was inactive: -15%. `CCCCOC(=O)c1ccc(NC(=O)c2cc3c(=O)n4cccc(C)c4nc3n2C)cc1` was tested, and the activation was inactive: -13.6%. `O=C(Nc1ccc(F)cc1F)c1cc(-c2ccccc2O)no1` was tested, and the activation was inactive: 3.61%. `Cc1ccc(NC(=O)Cn2c(=O)n(CCCCC(=O)NCCc3ccccc3)c(=O)c3ccccc32)c(C)c1` was tested, and the activation was inactive: 6.67%. `Cc1nn2c(=O)cc(COC(=O)c3ccc(NC(=O)C4CCCCC4)cc3)nc2s1` was tested, and the activation was inactive: 14.2%. `O=C(COc1ccccc1Cl)Nc1ccc2oc(-c3ccccc3F)nc2c1` was tested, and the activation was inactive: -7.56%. For `COCCNC(=O)CCCn1c(=O)c2cc(OC)c(OC)cc2n(CC(=O)Nc2ccc(F)cc2)c1=O`, the activation was inactive: 2.12%. For `Cc1ccc(NC(=O)C(NS(=O)(=O)c2ccc3c(c2)CCC(=O)N3)c2ccccc2)cc1C` (stereo not given), the activation was inactive: 15.3%. `CCOC(=O)C1CCN(CCC(=O)Nc2ccc(Br)c(C)c2)CC1` was tested, and the activation was inactive: 7.06%. For `O=C(CSc1nc(=O)[nH]c2c1CCCC2)Nc1ccccc1C(F)(F)F`, the activation was inactive: -13.3%. In the case of `CCOc1ccc(CNC(=O)c2ccc(-c3nc(CS(=O)(=O)c4ccccc4)c(C)o3)cc2)cc1`, the activation is reported as inactive: -0.113%. `Cc1ccc(C)c(NC(=O)CN2C(=O)COc3ccc(Cl)cc32)c1` was tested, and the activation was inactive: 0.704%. With `O=C(Nc1c(C(=O)Nc2ccc(F)cc2)oc2ccccc12)c1ccccc1F` the activation was inactive: -12.5%. `CCCCNC(=O)NS(=O)(=O)c1ccc(C)cc1` was tested, and the activation was inactive: -0.0347% and inactive: -5.22%.

Reference: PubChem BioAssay AID1346428 (National Center for Advancing Translational Sciences (NCATS), 2018)
Further: 0% is about no effect.
